Laboratory results reported in paper PMC4336329 (PLoS ONE, 2015).
In all, about 310,000 compounds went through this assay and about 14,000 (4.5%) showed an effect of 50% or more. Effects have a minus sign here. The list shows a part of the results.

Target: human ether-à-go-go-related gene (hERG) potassium channel (human, UniProt Q12809)
Experiment: primary screen, population patch clamp on CHO cells stably expressing hERG
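Further: peak tail current of the secondary pulse compared with the same well before compound.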

Chain of human ether-à-go-go-related gene (hERG) potassium channel (Q12809 whole entry, looked up): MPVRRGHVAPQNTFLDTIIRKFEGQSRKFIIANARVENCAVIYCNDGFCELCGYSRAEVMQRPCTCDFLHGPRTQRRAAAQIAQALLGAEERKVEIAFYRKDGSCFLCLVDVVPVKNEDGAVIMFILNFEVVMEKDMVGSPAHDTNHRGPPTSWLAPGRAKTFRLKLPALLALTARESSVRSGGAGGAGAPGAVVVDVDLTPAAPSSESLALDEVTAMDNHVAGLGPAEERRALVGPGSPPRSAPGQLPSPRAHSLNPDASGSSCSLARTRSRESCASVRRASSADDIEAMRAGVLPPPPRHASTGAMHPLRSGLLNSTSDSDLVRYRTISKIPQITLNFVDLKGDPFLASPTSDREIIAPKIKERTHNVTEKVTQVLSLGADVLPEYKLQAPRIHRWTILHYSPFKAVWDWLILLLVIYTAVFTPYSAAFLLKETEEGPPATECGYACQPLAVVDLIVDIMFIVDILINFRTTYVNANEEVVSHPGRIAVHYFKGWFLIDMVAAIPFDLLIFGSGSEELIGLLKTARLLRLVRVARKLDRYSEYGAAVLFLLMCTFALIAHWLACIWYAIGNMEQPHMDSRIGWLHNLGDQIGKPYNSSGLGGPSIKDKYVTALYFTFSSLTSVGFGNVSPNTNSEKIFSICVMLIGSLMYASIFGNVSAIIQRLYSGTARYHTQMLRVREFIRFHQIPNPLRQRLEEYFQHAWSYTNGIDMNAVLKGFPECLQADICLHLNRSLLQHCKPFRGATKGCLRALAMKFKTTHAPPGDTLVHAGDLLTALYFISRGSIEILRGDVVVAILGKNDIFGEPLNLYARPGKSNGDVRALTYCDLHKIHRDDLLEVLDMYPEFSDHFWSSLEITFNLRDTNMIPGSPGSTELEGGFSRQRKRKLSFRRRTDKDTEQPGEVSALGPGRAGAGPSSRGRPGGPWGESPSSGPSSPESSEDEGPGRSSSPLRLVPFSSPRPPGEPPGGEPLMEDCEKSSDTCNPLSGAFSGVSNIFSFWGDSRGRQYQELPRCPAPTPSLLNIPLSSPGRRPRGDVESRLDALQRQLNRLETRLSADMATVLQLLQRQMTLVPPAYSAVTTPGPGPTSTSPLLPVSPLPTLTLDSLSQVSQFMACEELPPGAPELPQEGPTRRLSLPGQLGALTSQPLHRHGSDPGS

Row | SMILES | hERG current change (%, negative = inhibition) at 10uM [%]
1 | COc1ccc(NC(=O)c2ccc(-n3cccn3)c([N+](=O)[O-])c2)cc1 | -12.3
2 | CCC(=O)Nc1nnc(S(=O)(=O)N2CCc3ccccc32)s1 | 4.56
3 | [O-]/[N+](=C\C=C\c1ccccc1)c1ccccc1 | 15.4
4 | O=C(NCCN1CCN(C(=O)c2cccs2)CC1)C(=O)Nc1ccc(Br)cc1 | -73.7
5 | Cc1ccc(NC(=O)c2c(C(F)(F)F)nn(C)c2SCc2ccc(Cl)cc2)cc1C | 13.4
6 | COc1ccc(C(=O)c2coc3ccc(O)cc23)cc1 | 7.61
7 | CC(C)OCCCn1c(-c2ccc(Br)cc2)c[nH]c1=S | -47.3
8 | CC1CC(C)CN(S(=O)(=O)N2CCC(C(=O)NCc3ccco3)CC2)C1 (stereo not shown) | 15.1
9 | COc1ccc(-n2nc(C(=O)NCC(=O)N3CCCC3)c3ccccc3c2=O)cc1 | 14
10 | CCC(=O)N/C(=N/c1nc(C)cc(C)n1)Nc1cccc(OC)c1 | -11.4
11 | O=C(NCc1ccccc1)C(c1ccccc1)N(C(=O)c1csnn1)C1CC1 (stereo not shown) | -9.35
12 | CN1CCC(NC(=S)NC2CC2)CC1 | 11.9
13 | CCN1C(=S)N[C@@H](c2cccs2)C(C(=O)OC)=C1C | 4.42
14 | Cc1ccc(-n2c(SCC(=O)NCc3ccco3)nc3sc4c(c3c2=O)CC(C)(C)SC4)cc1 | -6.39
15 | CCSc1nnc(NC(=O)CSc2nccn2-c2cc(C)cc(C)c2)s1 | -2.92
16 | COc1ccc(C)cc1S(=O)(=O)N(CC(=O)Nc1cc([N+](=O)[O-])ccc1C)c1ccc(C)c(C)c1 | 3.15
17 | COc1ccc(-n2c(=S)[nH]c3ncccc3c2=O)cc1 | 7.98
18 | NC(=O)c1ccc(N2CCNC(=O)C2)c([N+](=O)[O-])c1 | 23.5
19 | NC(=O)c1ccc(NC(=O)C2CC2)cc1 | 26.7
20 | CN(C)C(CNC(=O)C1CC(=O)N(Cc2ccccc2)C1)c1ccccc1 (stereo not shown) | 16.1
21 | CS(=O)(=O)N(CC(=O)Nc1ccccc1C(=O)NCCc1ccccc1)c1ccc2c(c1)OCCO2 | -13.1
22 | NC(=O)NC(=O)CSc1nc(-c2ccccc2)c(-c2ccccc2)n1CC1CCCO1 (stereo not shown) | -18.1

Row | SMILES | hERG current change (%, negative = inhibition) at 10uM [%]
23 | Cc1nnc(SCC(=O)Nc2ccc(-c3nc4ccccc4s3)cc2)s1 | 23.4
24 | COc1ccc(C)cc1NC(=O)c1cc2c(=O)n3ccccc3nc2n1C | 18.3
25 | O=C(Nc1ccc(Br)cc1)c1cccc(NC(=O)C2C3CC4OC(=O)C2C4C3)c1 (stereo not shown) | -7.02
26 | Cc1ccc(NC(=O)NCCN2CCCCC2)cc1 | -11
27 | Cc1cccc(C)c1N(CC(=O)Nc1cccc(N(C)S(C)(=O)=O)c1)S(C)(=O)=O | -15.1
28 | COc1ccc(NC(=O)C2CCCN(c3ncccn3)C2)cc1 (stereo not shown) | 3.4
29 | Cc1ccc(N(C(=O)CCl)C(C(=O)NC2CCCCC2)c2cccnc2)cc1C (stereo not shown) | -0.326
30 | Cc1noc(C)c1NC(=O)NCCN1CCN(Cc2ccccc2)CC1 | 13.7
31 | O=C(NCc1cccnc1)C(=O)NCC(c1ccco1)N1CCOCC1 (stereo not shown) | 16.9
32 | CCSc1nnc(NC(=O)Cc2cccc(OC)c2)s1 | -1.05
33 | O=C(Nc1ccccc1)Nc1ccc2ocnc2c1 | 9.9
34 | CC(C)(C)c1ccc2c(c1)N(CC(=O)N1CCOCC1)C(=O)CO2 | 9.15
35 | CSc1ccccc1C(=O)N1CCc2ccccc2C1 | -6.97
36 | Cc1ccc(NC(=O)CCS(=O)(=O)c2cccc3nonc23)cc1Cl | 17.7
37 | CCc1nnc(NC(=O)CCC(=O)N2CCN(Cc3ccc(F)cc3)CC2)s1 | 13.5
38 | Cl.OCCNCc1ccc(OCc2ccc(Cl)cc2Cl)cc1 | -45.8
39 | O=C(CCCCCCCCC(=O)N/N=C/c1ccco1)N/N=C/c1ccco1 | -4.84
40 | Cc1cc(CN2C(=O)c3ccccc3C2=O)no1 | -6.1
41 | CCOC(=O)c1[nH]c(C)c(C(=O)c2ccc(C)cc2)c1C | 11.2
42 | COc1cc(-c2nc(-c3ccc4c(c3)-c3ccccc3S4(=O)=O)c(-c3ccccc3)[nH]2)cc(OC)c1O | 24.5
43 | O=C(CCN1CCc2ccccc2C1)Nc1ccccc1F | -20
